Results: patent publication US10112926B2 (priority 2014, dated 2018)
Where a name gives a salt, the structure may show the parent alone.

tested on: IL-8-induced neutrophil shape change in human whole blood; test: cells; conditions: read-out: Assay L WBSC IC50

| Structure (SMILES) | IC50 [nM] |
| --- | --- |
| Cc1ccc(S(=O)(=O)NCC(C)(C)O)cc1-c1cnc(N)c(-c2nc(C(C)C)no2)c1 [Example 5.1, 3-(6-Amino-5-(3-isopropyl-1,2,4-oxadiazol-5-yl)pyridin-3-yl)-N-(2-hydroxy-2-methylpropyl)-4-methylbenzenesulfonamide hydrochloride] | 4990 |
| Cc1ccc(S(=O)(=O)NCC(C)(C)O)cc1-c1cnc(N)c(-c2cnco2)c1 [Example 94a, 3-(6-amino-5-(oxazol-5-yl)pyridin-3-yl)-N-(2-hydroxy-2-methylpropyl)-4-methylbenzenesulfonamide] | 720 |
| Cc1cc(-c2cc(-c3cc(S(=O)(=O)NCC(F)(F)F)ccc3C)cnc2N)on1 [Example 39, 3-(6-Amino-5-(3-methylisoxazol-5-yl)pyridin-3-yl)-4-methyl-N-(2,2,2-trifluoroethyl)benzenesulfonamide] | 2000 |
| Cc1noc(-c2cc(-c3cc(S(=O)(=O)N[C@H]4CC[C@H](CO)CC4)ccc3C)cnc2N)n1 [Example 19, trans 3-[6-Amino-5-(3-methyl-[1,2,4]oxadiazol-5-yl)-pyridin-3-yl]-N-(4-hydroxymethyl-cyclohexyl)-4-methyl-benzenesulfonamide hydrochloride] | 610 |
| Cc1noc(-c2cc(-c3cc(S(=O)(=O)NCC(C)(C)O)c(C)cc3C)cnc2N)n1 [Example 100] | 3240 |
| Cc1ncc(-c2cc(-c3cc(S(N)(=O)=O)ccc3C)cnc2N)s1 [Example 74, 3-(6-Amino-5-(2-methylthiazol-5-yl)pyridin-3-yl)-4-methylbenzenesulfonamide] | 16700 |
| Cc1noc(-c2cc(-c3cc(S(=O)(=O)NCC4(C)COC4)ccc3C)cnc2N)n1 [Example 4.9, 3-(6-Amino-5-(3-methyl-1,2,4-oxadiazol-5-yl)pyridin-3-yl)-4-methyl-N-((3-methyloxetan-3-yl)methyl)benzene-sulfonamide] | 3160 |
| Cc1ncc(-c2cc(-c3cc(S(=O)(=O)NCCCO)ccc3C)cnc2N)s1 [Example 9, 3-[6-Amino-5-(2-methyl-thiazol-5-yl)-pyridin-3-yl]-N-(3-hydroxy-propyl)-4-methyl-benzenesulfonamide] | 1280 |
| Cc1cc(-c2cc(-c3cc(S(=O)(=O)N[C@H]4CCC[C@H](O)C4)ccc3C)cnc2N)on1 [Example 19.16, 3-(6-amino-5-(3-methylisoxazol-5-yl)pyridin-3-yl)-N-((1S,3S)-3-hydroxycyclohexyl)-4-methylbenzenesulfon-amide trifluoroacetic acid salt] | 1860 |
| Cc1cc(-c2cc(-c3cc(S(=O)(=O)N4CCCC(C)(O)CC4)ccc3C)cnc2N)on1 (centres unmarked) [Example 19.21, 1-((3-(6-amino-5-(3-methylisoxazol-5-yl)pyridin-3-yl)-4-methylphenyl)sulfonyl)-4-methylazepan-4-ol trifluoroacetic acid salt] | 8260 |
| Cc1cc(-c2cc(-c3cc(S(=O)(=O)NCC4(CO)COC4)ccc3C)cnc2N)on1 [Example 50, 3-(6-Amino-5-(3-methylisoxazol-5-yl)pyridin-3-yl)-N-((3-(hydroxymethyl)oxetan-3-yl)methyl)-4-methylbenzenesulfonamide] | 640 |
| Cc1cc(-c2cc(-c3cc(S(=O)(=O)N[C@H]4CC[C@H](O)CC4)ccc3C)cnc2N)on1 [Example 5.4, trans 3-(6-Amino-5-(3-methylisoxazol-5-yl)pyridin-3-yl)-N-(-4-hydroxycyclohexyl)-4-methylbenzenesulfon-amide hydrochloride] | 380 |
| Cc1ccc(S(=O)(=O)NCC(C)(C)O)cc1-c1cnc(N)c(-c2cc(C3CC3)no2)c1 [Example 35.3, 3-(6-Amino-5-(3-cyclopropylisoxazol-5-yl)pyridin-3-yl)-N-(2-hydroxy-2-methylpropyl)-4-methylbenzenesulfonamide hydrochloride] | 4810 |
| CCN1CCC[C@@H]1CNS(=O)(=O)c1ccc(C)c(-c2cnc(N)c(-c3cc(C)no3)c2)c1 [Example 37.27, (R)-3-(6-Amino-5-(3-methylisoxazol-5-yl)pyridin-3-yl)-N-((1-ethylpyrrolidin-2-yl)methyl)-4-methylbenzenesulfonamide] | 690 |
| Cc1ccc(S(=O)(=O)NCCC(C)(C)O)cc1-c1cnc(N)c(-c2ccncc2)c1 [Example 18, 3-(2-Amino-[3,4′]bipyridinyl-5-yl)-N-(3-hydroxy-3-methyl-butyl)-4-methyl-benzenesulfonamide] | 1200 |
| Cc1noc(-c2cc(-c3cc(S(=O)(=O)NCC4(O)CCOCC4)ccc3C)cnc2N)n1 [Example 51, 3-(6-Amino-5-(3-methyl-1,2,4-oxadiazol-5-yl)pyridin-3-yl)-N-((4-hydroxytetrahydro-2H-pyran-4-yl)methyl)-4-methylbenzenesulfonamide] | 1230 |
| Cc1noc(-c2cc(-c3cc(S(=O)(=O)NCC4(CO)COC4)ccc3C)cnc2N)n1 [Example 52, 3-(6-Amino-5-(3-methyl-1,2,4-oxadiazol-5-yl)pyridin-3-yl)-N-((3-(hydroxymethyl)oxetan-3-yl)methyl)-4-methylbenzenesulfonamide] | 1750 |
| Cc1ccc(S(=O)(=O)NCCC(C)(C)O)cc1-c1cnc(N)c(-c2cnn(CC(F)(F)F)c2)c1 [Example 3, 3-(6-Amino-5-(1-(2,2,2-trifluoroethyl)-1H-pyrazol-4-yl)pyridin-3-yl)-N-(3-hydroxy-3-methylbutyl)-4-methylbenzenesulfonamide] | 500 |
| Cc1cccc(NS(=O)(=O)c2ccc(C)c(-c3cnc(N)c(-c4cnn(CC(F)(F)F)c4)c3)c2)n1 [Example 1, 3-{6-Amino-5-[1-(2,2,2-trifluoro-ethyl)-1H-pyrazol-4-yl]-pyridin-3-yl}-4-methyl-N-(6-methyl-pyridin-2-yl)-benzenesulfonamide] | 2190 |
| Cc1ncc(-c2cc(-c3cc(S(=O)(=O)NCCC(C)(C)O)ccc3C)cnc2N)s1 [Example 4, 3-(6-Amino-5-(2-methylthiazol-5-yl)pyridin-3-yl)-N-(3-hydroxy-3-methylbutyl)-4-methylbenzenesulfonamide] | 280 |

target: PI 3-kinase delta (Homo sapiens (Human), UniProt O00329); test: not given; conditions: read-out: Assay F PI3Kδ IC50
Sequence (O00329 whole entry, looked up): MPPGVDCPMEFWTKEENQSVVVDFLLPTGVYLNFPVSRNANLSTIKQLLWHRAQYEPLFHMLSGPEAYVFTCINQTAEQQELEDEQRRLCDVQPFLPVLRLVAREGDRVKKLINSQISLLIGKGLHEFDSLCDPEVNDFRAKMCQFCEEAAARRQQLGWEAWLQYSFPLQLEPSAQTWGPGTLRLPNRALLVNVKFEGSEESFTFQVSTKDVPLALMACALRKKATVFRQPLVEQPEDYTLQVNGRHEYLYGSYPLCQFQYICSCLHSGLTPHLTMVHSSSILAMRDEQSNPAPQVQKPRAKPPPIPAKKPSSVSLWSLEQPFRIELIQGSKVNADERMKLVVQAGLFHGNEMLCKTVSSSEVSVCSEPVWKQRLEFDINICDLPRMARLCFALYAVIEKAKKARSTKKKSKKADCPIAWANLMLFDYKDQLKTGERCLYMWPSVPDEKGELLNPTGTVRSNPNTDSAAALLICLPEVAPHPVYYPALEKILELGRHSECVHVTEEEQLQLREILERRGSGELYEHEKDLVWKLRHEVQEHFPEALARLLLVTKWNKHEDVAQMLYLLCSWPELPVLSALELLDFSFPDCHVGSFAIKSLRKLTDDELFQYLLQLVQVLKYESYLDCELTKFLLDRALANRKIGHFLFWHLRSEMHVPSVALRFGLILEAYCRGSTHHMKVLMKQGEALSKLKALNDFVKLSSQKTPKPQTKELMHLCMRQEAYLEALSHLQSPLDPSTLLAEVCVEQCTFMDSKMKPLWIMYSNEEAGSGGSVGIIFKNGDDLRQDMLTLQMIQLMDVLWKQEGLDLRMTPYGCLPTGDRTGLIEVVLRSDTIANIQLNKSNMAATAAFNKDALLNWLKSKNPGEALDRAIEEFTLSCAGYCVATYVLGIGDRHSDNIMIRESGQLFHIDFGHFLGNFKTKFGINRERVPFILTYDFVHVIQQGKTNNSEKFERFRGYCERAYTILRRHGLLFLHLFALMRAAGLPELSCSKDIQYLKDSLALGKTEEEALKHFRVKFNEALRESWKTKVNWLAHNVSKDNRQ
Sequence (P27986 whole entry partner, looked up): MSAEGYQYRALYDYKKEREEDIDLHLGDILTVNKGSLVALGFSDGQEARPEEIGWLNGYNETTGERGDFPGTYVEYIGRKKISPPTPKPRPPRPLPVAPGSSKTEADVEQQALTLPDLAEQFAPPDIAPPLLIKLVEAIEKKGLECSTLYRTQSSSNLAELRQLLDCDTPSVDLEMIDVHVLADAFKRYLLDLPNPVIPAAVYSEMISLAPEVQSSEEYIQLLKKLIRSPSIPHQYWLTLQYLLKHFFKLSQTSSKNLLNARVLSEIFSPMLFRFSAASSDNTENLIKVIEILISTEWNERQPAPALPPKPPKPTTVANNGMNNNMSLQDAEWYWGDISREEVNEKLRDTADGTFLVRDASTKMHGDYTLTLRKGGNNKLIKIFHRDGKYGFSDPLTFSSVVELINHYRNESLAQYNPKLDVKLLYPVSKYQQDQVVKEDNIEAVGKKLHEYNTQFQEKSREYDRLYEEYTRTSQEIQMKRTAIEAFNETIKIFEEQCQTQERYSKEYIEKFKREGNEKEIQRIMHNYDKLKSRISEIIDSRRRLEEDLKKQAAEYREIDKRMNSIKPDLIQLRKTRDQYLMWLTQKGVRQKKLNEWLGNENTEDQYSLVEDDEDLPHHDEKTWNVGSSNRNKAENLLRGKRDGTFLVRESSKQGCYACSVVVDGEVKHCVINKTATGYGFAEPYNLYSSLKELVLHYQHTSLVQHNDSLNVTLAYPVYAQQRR

| Structure (SMILES) | IC50 [nM] |
| --- | --- |
| Cc1ncc(-c2cc(-c3cc(S(=O)(=O)NC4CC5(CC(O)C5)C4)ccc3C)cnc2N)s1 (centres unmarked) [Example 28, 3-(6-Amino-5-(2-methylthiazol-5-yl)pyridin-3-yl)-N-(6-hydroxyspiro[3.3]heptan-2-yl)-4-methylbenzenesulfonamide] | 200 |

tested on: IL-8-induced neutrophil shape change in human whole blood; test: not given; conditions: read-out: Assay L WBSC IC50; hydrochloride

| Structure (SMILES) | IC50 [nM] |
| --- | --- |
| Cc1noc(-c2cc(-c3cc(S(=O)(=O)N[C@H]4CC5(C[C@@H](O)C5)C4)ccc3C)cnc2N)n1 (single isomer, unassigned) [Example 8.2, (R) or (S)-3-[6-Amino-5-(3-methyl-[1,2,4]oxadiazol-5-yl)-pyridin-3-yl]-N-(6-hydroxy-spiro[3.3]hept-2-yl)-4-methyl-benzenesulfonamide hydrochloride] | 630 |

target: PI 3-kinase alpha (Homo sapiens (Human), UniProt P42336); test: not given; conditions: read-out: Assay A PI3Kα IC50
Sequence (P42336 whole entry, looked up): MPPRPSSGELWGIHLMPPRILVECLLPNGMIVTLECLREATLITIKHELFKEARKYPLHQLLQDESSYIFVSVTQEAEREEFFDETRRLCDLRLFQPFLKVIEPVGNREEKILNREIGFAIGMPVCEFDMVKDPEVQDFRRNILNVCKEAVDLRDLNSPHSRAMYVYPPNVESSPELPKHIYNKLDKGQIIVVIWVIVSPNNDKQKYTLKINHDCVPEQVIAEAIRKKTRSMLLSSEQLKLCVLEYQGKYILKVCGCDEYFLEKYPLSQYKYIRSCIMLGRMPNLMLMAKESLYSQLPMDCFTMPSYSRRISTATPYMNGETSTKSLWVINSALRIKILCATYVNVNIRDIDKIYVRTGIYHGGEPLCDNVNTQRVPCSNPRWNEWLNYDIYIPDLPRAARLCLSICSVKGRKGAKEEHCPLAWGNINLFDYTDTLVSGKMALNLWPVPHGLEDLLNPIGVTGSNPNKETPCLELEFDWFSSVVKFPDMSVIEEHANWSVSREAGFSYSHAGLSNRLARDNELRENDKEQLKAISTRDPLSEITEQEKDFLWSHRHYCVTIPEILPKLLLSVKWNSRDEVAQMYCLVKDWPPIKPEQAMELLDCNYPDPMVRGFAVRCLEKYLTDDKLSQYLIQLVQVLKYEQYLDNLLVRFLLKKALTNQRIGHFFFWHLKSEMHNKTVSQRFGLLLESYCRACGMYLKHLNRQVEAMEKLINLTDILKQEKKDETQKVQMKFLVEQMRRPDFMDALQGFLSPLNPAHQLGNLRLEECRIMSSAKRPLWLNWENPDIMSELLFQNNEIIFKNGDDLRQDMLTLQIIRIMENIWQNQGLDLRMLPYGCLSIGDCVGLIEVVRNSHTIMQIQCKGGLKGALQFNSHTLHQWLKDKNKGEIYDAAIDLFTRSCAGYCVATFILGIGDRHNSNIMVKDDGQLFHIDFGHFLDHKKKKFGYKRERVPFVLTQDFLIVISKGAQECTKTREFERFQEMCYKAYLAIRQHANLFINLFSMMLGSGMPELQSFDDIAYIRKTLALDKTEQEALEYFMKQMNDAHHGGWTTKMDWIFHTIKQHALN
Sequence (P27986 whole entry partner, looked up): as the sequence (P27986 whole entry partner, looked up) above

| Structure (SMILES) | IC50 [nM] |
| --- | --- |
| Cc1cnn(-c2cc(-c3cc(S(=O)(=O)NCC(C)(C)O)ccc3C)cnc2N)c1 [Example 60, 3-(6-Amino-5-(4-methyl-1H-pyrazol-1-yl)pyridin-3-yl)-N-(2-hydroxy-2-methylpropyl)-4-methylbenzenesulfonamide] | 9400 |
